Test results from PubChem BioAssay AID743262 (National Center for Advancing Translational Sciences (NCATS), 2014).
“And” between values parts separate entries of the source, which are not always exact repeats. Equal entries are not always repeated. Hit rate of the full screen: of about 1,300 compounds, about 25 (2%) were called active. Inconclusive results, whose numbers are uncertain, are shown with a selection of clear calls. Calls follow the shape of the dose curve; as a rule, active = well fitted activation curve with a large enough effect; inconclusive = small, poorly fitted or top-dose-only effect; inactive = flat fitted curve, though single readings scatter. A potency beside an inconclusive call is a rough fit, not a confirmed value.

What follows are compounds tested against Glucagon-like peptide 1 receptor (Homo sapiens) (UniProt P43220) (assay: qHTS of GLP-1 Receptor Agonists: Hit Validation). Conditions: HEK293 GLP-1R, cAMP-response luciferase, 4-6 h; series mostly up to 46.1 µM.
Text: The overall goal of this project was to develop a novel assay for discovering small molecule ligands for class B1 G protein-coupled receptors (GPCRs). Very few agonists (or inverse agonists) with generally weak activity for this entire group of physiologically important receptors are known to date. To establish proof-of-principle that this critical bottleneck can be overcome with a suitable screening approach, our studies focused on the class B1 receptor for glucagon-like peptide-1 (GLP-1R), a potential therapeutic target for diabetes and neurodegenerative disease. The assay was developed in a "mix and measure" format using a cell-based functional readout. Toward this goal, stably transfected HEK293 cell clones were established that co-express (i) a cAMP-responsive luciferase reporter gene, and (ii) GLP-1Rs that upon ligand interaction either stimulate (agonists) or inhibit (inverse agonists) luciferase activity. In different cell lines to be used for screening, expressed GLP-1Rs are specifically optimized for high sensitivity detection of either weak agonists (hypersensitive receptor) or inverse agonists (constitutively active receptor mutant). In addition, control cell lines were developed that express either the cAMP-responsive reporter gene without recombinant GLP-1Rs (enabling initial exclusion of GLP-1R independent effects of candidate probes), or the reporter gene together with wild type GLP-1Rs (for confirmation of probe activity at this receptor), or the reporter gene in combination with the constitutively active orphan receptor GPR119 (enabling initial exclusion of GLP-1R independent inhibitory effects of candidate inverse agonists). To that end, this assay was optimized for 1536-well format and screened against the MLSMR. NIH Molecular Libraries Probe Production Network [MLPCN] NIH Chemical Genomics Center [NCGC] Grant: NS064851 PI Name: Martin Beinborn, Tufts Medical Center
In a white solid 1536-well plate, 6 uL of cells are dispensed in DMEM without phenol red, 10% Nu serum, and 1% pen-strep medium. The plates are then incubated for 12 hours at 37 deg C at 5% CO2 before 23 nL of compounds are added. After a 4-6 hr incubation at37 deg C and 5% CO2, 3 uL of detection reagent are added and after a 12 min incubation at RT, a luminescent read is obtained on the ViewLux.
Potency is read from the fitted curve at half-maximal effect; tags tell the direction and shape of the fitted curve.

Chain of UniProt P43220 (P43220 whole entry, looked up): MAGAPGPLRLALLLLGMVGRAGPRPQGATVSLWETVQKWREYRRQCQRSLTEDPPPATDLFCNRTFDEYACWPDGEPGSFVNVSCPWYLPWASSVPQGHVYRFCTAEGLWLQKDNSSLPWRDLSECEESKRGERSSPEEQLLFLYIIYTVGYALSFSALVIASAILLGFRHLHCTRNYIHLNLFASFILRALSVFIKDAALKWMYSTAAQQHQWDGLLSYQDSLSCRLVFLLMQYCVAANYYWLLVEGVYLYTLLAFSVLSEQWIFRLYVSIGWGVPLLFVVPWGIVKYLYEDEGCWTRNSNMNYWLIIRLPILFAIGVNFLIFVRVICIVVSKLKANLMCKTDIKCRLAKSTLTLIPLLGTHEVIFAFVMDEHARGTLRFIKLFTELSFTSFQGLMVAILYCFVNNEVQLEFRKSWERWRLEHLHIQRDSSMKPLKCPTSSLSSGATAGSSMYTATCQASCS

Row | SMILES | Potency
1 | O=c1c2c3c(sc2nc2n1CCCC2)CCCCC3 | inconclusive: 23.1 µM [activator, single point]
2 | CC1(C(=O)Nc2ccc3c(c2)OCO3)Cc2c(-c3ccc4c(c3)OCO4)ccnc2O1 (configuration not stated) | inconclusive: 18.4 µM [activator, partial curve]
3 | O=C(NC1CCCCCC1)C(=O)NC1CC1 | inactive
4 | COc1ccc(-c2nn3c(C4CCCCC4)nnc3s2)cc1OC | inconclusive: 16.4 µM [activator, single point]
5 | O=C(OCc1ccc(Br)cc1)c1cc([N+](=O)[O-])ccc1N1CCOCC1 | inconclusive: 18.4 µM [activator, single point]
6 | COc1cccc(-c2cnc3c(NC=O)cc(-c4ccc(OC)cc4OC)cn23)c1 | inconclusive: 9.2 µM [activator, partial curve]
7 | Cc1ccc(NC(=S)N/N=C/c2c(Cl)cccc2Cl)c(C)c1 | inconclusive: 20.6 µM [activator, single point]
8 | COc1ccc(F)cc1-c1cc(NC(C)=O)c2ncc(-c3cc(OC)c(OC)c(OC)c3)n2c1 | inactive
9 | COc1ccc(C2CC(c3ccc(OC)c(OC)c3)=NN2C(=O)c2ccccc2)cc1 (configuration not stated) | inactive
10 | Nc1nnc(-c2cn(-c3ccccc3)nc2-c2ccccc2)o1 | active: 5.17 µM
11 | CCOc1ccccc1Nc1cc2n(c(=O)n1)CCc1cc(OC)c(OC)cc1-2 | inconclusive: 7.31 µM [activator, partial curve]
12 | Cc1nc2cc(-c3cccc(F)c3)nn2c(N2CCN(C(=O)c3ccco3)CC2)c1C | inactive
13 | COC(=O)c1ccccc1CON1C(=O)C(C)(C)N(OCc2ccccc2C(=O)OC)C(=O)C1(C)C | inconclusive: 8.2 µM [activator, partial curve]
14 | S=C(Nc1ccccc1)Nc1nc2ccccc2n1CCOc1ccccc1 | inconclusive: 20.6 µM [activator, single point]
15 | COc1ccc(-c2cc(NC=O)c3ncc(-c4ccc(OC)c(OC)c4)n3c2)c(OC)c1 | active: 2.59 µM
16 | CCOc1ccc(C2C(C(=O)OC)=C(C)NC3=C2C(=O)c2ccccc23)cc1OC (configuration not stated) | inconclusive: 18.4 µM [activator, single point]
17 | CCOC(=O)c1c(NC(=O)COC)sc(C)c1C | inactive
18 | COc1ccc(OC)c(/C=N/n2c(-c3n[nH]c4c3CCC4)n[nH]c2=S)c1 | inactive
19 | CCN(CC)c1nc2ccccc2nc1C(C#N)C(=O)NCCCOC (configuration not stated) | inactive
20 | OC1CCCN(c2c3c(nc4cc(-c5cccc(F)c5)nn24)CCCC3)C1 (configuration not stated) | inactive
21 | CCOC(=O)C1(C)CCCN(C(=O)c2cc(C)oc2C)C1 (configuration not stated) | inactive
22 | COc1ccc(C2=Nn3c(nnc3-c3ccccc3OC)SC2)cc1OC | active: 5.8 µM
23 | COCCNc1nc(Nc2ccccc2Cl)c2sccc2n1 | inactive
24 | COc1ccc(-c2cc(NC=O)c3ncc(-c4ccc(OC)c(OC)c4)n3c2)cc1OC | inconclusive: 16.4 µM [activator, partial curve]

Row | SMILES | Potency
25 | Oc1cccc(C(O)CNCc2ccc(-c3ccccc3)cc2)c1 (configuration not stated) | inconclusive: 8.2 µM [activator, partial curve]
26 | COc1ccc(Nc2cc3n(c(=O)n2)CCc2cc(OC)c(OC)cc2-3)cc1 | inconclusive: 14.6 µM [activator, partial curve]
27 | COc1ccc(C2=Nn3c(nnc3-c3ccco3)SC2)cc1 | inactive
28 | COc1ccc(-c2cc(=O)[nH]c(NCc3ccccc3)n2)cc1 | inactive
29 | COc1cc2c(cc1OC)/C(=C/C(=O)N1CCOCC1)NC(C)(C)C2 | inactive
30 | COc1cc2c(cc1OC)C(C)N(C(=O)C1COc3ccccc3O1)CC2 (configuration not stated) | inactive
31 | COc1ccc(-c2nc(C)c(CCNC(=O)c3cccc(C)c3)s2)cc1OC | inconclusive: 20.6 µM [activator, single point]
32 | C=CCn1c(SCc2cc(=O)n3ccsc3n2)nc2scc(C3CC3)c2c1=O | inconclusive: 20.6 µM [activator, single point]
33 | CCOC(=O)c1sc2nc(OCc3cccnc3)cc(C)c2c1N | inactive
34 | N#C/C(=C\c1ccc(O)c(O)c1)C(=O)NCCc1ccccc1 | inconclusive: 6.51 µM [activator, partial curve]
35 | CN(C)c1ccc(N=Nc2ccccc2C(=O)OCC(=O)Nc2ccccc2C(F)(F)F)cc1 | inactive
36 | CCOc1ccc(Nc2cc3n(c(=O)n2)CCc2cc(OC)c(OC)cc2-3)cc1 | inconclusive: 14.6 µM [activator, partial curve]
37 | Oc1ccc(CCNCCCCCCNCCc2ccccc2)cc1O | inconclusive: 1.03 µM [activator, full curve]
38 | CC1(C)Cc2c(c(-c3ccco3)nc3sc4c(NCCCO)ncnc4c23)CO1 | inconclusive: 9.2 µM [activator, partial curve]
39 | C=CCOc1ccc(CNc2nccs2)cc1OCC | inactive
40 | COc1cccc(-c2cc(NC=O)c3ncc(-c4cc(OC)c(OC)c(OC)c4)n3c2)c1 | inconclusive: 5.8 µM [activator, partial curve]
41 | CC(=O)Nc1ccc(S(=O)(=O)N[C@@H](C)C(=O)OCc2cc([N+](=O)[O-])cc3c2OCOC3)cc1 | inconclusive: 14.6 µM [activator, partial curve]
42 | COc1ccc(C2=Nn3c(nnc3-c3ccco3)SC2)cc1OC | inconclusive: 16.4 µM [activator, partial curve]
43 | C=C[C@@]1(C)CC(=O)[C@]2(O)[C@@]3(C)[C@@H](O)CCC(C)(C)[C@@H]3[C@H](O)[C@H](OC(C)=O)[C@@]2(C)O1 | active: 2 µM and active: 1.84 µM
44 | COc1ccc(-c2cc(NC=O)c3ncc(-c4cccc(C(C)=O)c4)n3c2)cc1 | inconclusive: 5.17 µM [activator, full curve, poor fit]
45 | COc1cccc(-c2cnc3c(NC(C)=O)cc(-c4ccc(OC)c(OC)c4)cn23)c1 | inactive
46 | CCN(CCO)c1ncnc2c1sc1nc(C(C)C)c3c(c12)CC(C)(C)OC3 | inconclusive: 9.2 µM [activator, partial curve]
47 | C[C@@H](NCCc1ccc(O)cc1)[C@@H](O)c1ccc(O)cc1 | inconclusive: 0.116 µM [activator, full curve]
48 | Cc1cccc(OCCNc2cc(N3CCOCC3)ccc2[N+](=O)[O-])c1 | inactive

Row | SMILES | Potency
49 | CC(=O)Nc1ccc(NS(=O)(=O)c2cc(-c3n[nH]c(=O)c4ccccc34)ccc2C)cc1 | inconclusive: 20.6 µM [activator, single point]
50 | COc1ccc(OC)c(-c2nnc3n2N=C(c2ccc(OC)c(OC4CCOC4)c2)CS3)c1 (configuration not stated) | inconclusive: 1.84 µM [activator, full curve]
51 | COc1cccc(C(=O)/C=C2\NCCc3cc(OC)c(OC)cc32)c1 | inconclusive: 18.4 µM [activator, partial curve]
52 | CC(=O)N1c2ccc(C)cc2Sc2c1ccc1ccccc21 | inconclusive: 18.4 µM [activator, single point]
53 | CC(=O)c1cccc(N2C(=O)C3C4CCC(C4=C(C)C)C3C2=O)c1 (configuration not stated) | inactive
54 | COc1cc2c(cc1OC)-c1cc(Nc3ccc(N(C)C)cc3)nc(=O)n1CC2 | inconclusive: 14.6 µM [activator, partial curve]
55 | COc1ccccc1-c1nnc2n1N=C(c1ccc(OC(F)F)c(OCC3CC3)c1)CS2 | inconclusive: 8.2 µM [activator, partial curve]
56 | COc1ccc(-c2ncc3ccccn23)cc1OC | inconclusive: 18.4 µM [activator, single point]
57 | COc1ccc(-c2nnc(COc3ccc4ccccc4c3)o2)cc1OC | inconclusive: 18.4 µM [activator, single point]
58 | COc1ccc(-c2nn3c(COc4ccccc4)nnc3s2)cc1OC | inactive
59 | O=C(Nc1ccccc1)OCc1cc(-c2ccccc2Cl)on1 | inactive
60 | Cc1cc(C)n(-c2nnc3n2N=C(c2c[nH]c4ccccc24)CS3)n1 | inactive
61 | COc1ccc(CCC(C)NCc2ccc(F)cc2)cc1 (configuration not stated) | inconclusive: 5.17 µM [activator, partial curve]
62 | CNC[C@H](O)c1ccc(O)c(O)c1 | inconclusive: 0.0251 µM [activator, full curve]
63 | CCSc1nnc2ccc(-c3ccc(OC)c(OC)c3)nn12 | inconclusive: 20.6 µM [activator, single point]
64 | CC(=O)NC1(c2ccccc2)CCN(c2cc(C)nc(-c3ccccc3)n2)CC1 | inactive
65 | OC(CNCC#Cc1ccccc1)c1ccccc1 (configuration not stated) | inconclusive: 14.6 µM [activator, partial curve]
66 | COc1ccc2cc(-c3[nH]ncc3CN3CCCCO3)ccc2c1 | inconclusive: 23.1 µM [activator, single point]
67 | COc1ccc(-c2cnc3c(NC=O)cc(-c4ccc(S(C)(=O)=O)cc4)cn23)cc1OC | inconclusive: 7.31 µM [activator, partial curve]
68 | COC(=O)C1=C(C)NC(C)=C(C(=O)OC)C1c1ccc(N(C)C)cc1 | inconclusive: 13 µM [activator, partial curve]
69 | COc1cc2c(cc1OC)-c1cc(N3CCCc4ccccc43)nc(=O)n1CC2 | inconclusive: 16.4 µM [activator, partial curve]
70 | COc1cc(/C=N/NC(=O)NC23CC4CC(CC(C4)C2)C3)ccc1O | inconclusive: 20.6 µM [activator, single point]
71 | COc1ccc(C2=Nn3c(nnc3C3CCCCC3)SC2)cc1OC | active: 8.2 µM
72 | COc1cc(-c2cnc3c(NC=O)cc(-c4cccc(NC(C)=O)c4)cn23)cc(OC)c1OC | inconclusive: 13 µM [activator, partial curve]
